Whole data set: some 110,000 compounds, median “z-score” near -0.1, cut for the highest 2% near 2. This is one part of the list. Activity calls are given as the source filed them.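 The calls were made as follows: active = z-score in the third read window above 3 or below -3; inactive = the rest.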
What follows are compounds tested against Metabotropic glutamate receptor 8 (Rattus norvegicus) (UniProt P70579) (assay: mGluR8 Gi/Go-coupled signaling modulation – cell-based, rat, thallium flux, HTS, primary screen (AID 488969)). Conditions: HEK293 rat mGluR8, GIRK (G protein-gated inwardly rectifying potassium channel) thallium flux, FluoZin2; at 10 µM; stronger effect = higher value; submaximal glutamate (EC20) added with thallium.
Chain of UniProt P70579 (P70579 whole entry, looked up): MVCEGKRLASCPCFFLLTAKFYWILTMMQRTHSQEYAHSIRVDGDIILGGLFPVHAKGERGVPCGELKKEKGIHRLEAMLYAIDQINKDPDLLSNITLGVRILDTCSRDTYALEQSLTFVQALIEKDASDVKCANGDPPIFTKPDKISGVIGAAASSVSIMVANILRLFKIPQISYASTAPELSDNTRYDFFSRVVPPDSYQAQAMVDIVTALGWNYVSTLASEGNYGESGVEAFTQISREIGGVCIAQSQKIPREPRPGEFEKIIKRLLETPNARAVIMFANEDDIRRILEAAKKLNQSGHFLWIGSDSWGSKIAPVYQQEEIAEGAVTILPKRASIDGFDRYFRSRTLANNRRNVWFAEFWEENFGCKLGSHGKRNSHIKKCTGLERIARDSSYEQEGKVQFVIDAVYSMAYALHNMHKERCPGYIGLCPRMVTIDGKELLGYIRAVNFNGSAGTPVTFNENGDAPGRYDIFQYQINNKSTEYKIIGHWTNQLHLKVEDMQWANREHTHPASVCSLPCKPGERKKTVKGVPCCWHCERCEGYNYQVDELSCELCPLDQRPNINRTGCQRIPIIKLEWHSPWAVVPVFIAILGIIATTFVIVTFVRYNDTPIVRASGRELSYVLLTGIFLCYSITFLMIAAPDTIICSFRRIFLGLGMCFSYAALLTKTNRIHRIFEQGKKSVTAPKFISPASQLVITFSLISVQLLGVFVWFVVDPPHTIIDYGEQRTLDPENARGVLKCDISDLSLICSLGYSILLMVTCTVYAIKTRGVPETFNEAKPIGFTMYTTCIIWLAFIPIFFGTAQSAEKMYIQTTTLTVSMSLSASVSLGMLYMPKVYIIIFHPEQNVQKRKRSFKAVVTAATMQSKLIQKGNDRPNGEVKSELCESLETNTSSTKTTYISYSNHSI

Row | SMILES | z-score
1 | Fc1cccc(C2NC(=S)NC3=C2N2CCC3CC2)c1 (centres undefined) | -0.0491
2 | CC(C)(C)N1CC2([N+](=O)[O-])CN(C(C)(C)C)CC([N+](=O)[O-])(C1)C2 | -0.399
3 | Cc1cc(NC(=O)c2ccc(Cl)cc2)no1 | -0.394
4 | COc1ccccc1CCn1c(N)c(C#N)c2nc3ccccc3nc21 | -0.267
5 | CCOC(=O)CN1C(=O)C(Sc2n[nH]c(-c3ccc(O)cc3)n2)CCc2ccccc21 (centres undefined) | -0.472
6 | Cn1c(SCC(=O)CC(=O)Nc2ccccc2)nnc1-c1ccc(O)cc1 | -0.391
7 | Cc1ccc(CNC(=O)CSc2n[nH]c(N)n2)cc1 | 0.577
8 | O=C(NCCCn1ccnc1)c1cccc(S(=O)(=O)Nc2ccccc2F)c1 | 0.215
9 | O=C(NCc1ccco1)c1ccc2c(c1)N(Cc1ccccc1)C(=O)CS2=O (centres undefined) | 0.587
10 | Cc1cccc(-c2noc(CN(C(=O)CCc3ccccc3)C(C)C)n2)c1 | -0.536
11 | CCCN1C(=O)c2cc(C(=O)Nc3ccccc3CC)ccc2C1O (centres undefined) | 0.174
12 | Cc1ccc(Cl)cc1N1CCN(Cc2nnnn2C2CCCCC2)CC1 | 0.0236
13 | O=C(CNS(=O)(=O)c1c(Cl)cccc1Cl)OCC(=O)N1CCN(c2ccccc2)CC1 | -0.44
14 | C=CCOC(=O)C1=C(C)NC(=O)NC1c1cn(-c2ccccc2)nc1-c1cccs1 (centres undefined) | -0.983
15 | CCCN1CCN(C(=O)Cn2cccc2C(=O)c2ccccc2)CC1 | -0.154
16 | CCOc1ccc(C(=O)N[C@H](C(=O)O)C(C)C)cc1 | 0.285
17 | Cc1nn(-c2ccc(Cl)c(Cl)c2Cl)c(=O)c2ccccc12 | -0.689
18 | COc1ccc(/C=N/NC(=O)c2ccccc2F)cc1CN1CCN(c2ccc(F)cc2)CC1 | 0.728
19 | N#CC1=C(N)OC2=C(C(=O)CCC2)C12C(=O)N1CCCc3cccc2c31 (centres undefined) | -0.258
20 | O=S(=O)(NCc1ccccn1)c1cccc2nsnc12 | -0.293
21 | CCOC(=O)c1c(C)nc2ncccn12 | -0.404
22 | COc1ccc(S(=O)(=O)N2CCSC2c2ccccc2)cc1 (centres undefined) | -0.063

Row | SMILES | z-score
23 | COc1ccc(CCCc2nnc(SCC(=O)Nc3cccc(C)c3)o2)cc1 | -0.111
24 | CCn1c(SCC(=O)N2CCC(C)CC2)nnc1-c1ccc(S(=O)(=O)N2CCN(C)CC2)cc1 | -0.184
25 | Cc1ccc2nc(-c3ccc(NC(=O)C(C)N4C(=O)c5ccccc5C4=O)cc3)sc2c1 (centres undefined) | 0.109
26 | CC1=C(C(=O)Nc2ccccc2)C(c2ccco2)C(C#N)=C(SCC(=O)Nc2cccc(C)c2C)N1 (centres undefined) | 0.693
27 | CC(C)(C)C(=O)OCCn1c(=O)c2cc3c(=O)n(CCOC(=O)C(C)(C)C)c(=O)c3cc2c1=O | 0.401
28 | NC(=O)c1sc2nc3c(c(-c4ccco4)c2c1N)CCC3 | -0.0701
29 | NS(=O)(=O)c1ccc(NC(=S)NCc2cccc(Cl)c2)cc1 | -0.429
30 | CNS(=O)(=O)c1cccc(C(=O)OCc2cc(=O)n3cc(Br)ccc3n2)c1 | -0.283
31 | CCSCc1nnc(SCC(=O)Nc2cccc(SC)c2)n1C | -0.3
32 | COc1ccc(Cn2c(C)cc3c(c2=O)C(c2cccs2)C(C#N)=C(N)O3)cc1OC (centres undefined) | -0.055
33 | CCc1nc(SCC(=O)NNC(=O)C2CCCCC2)c2ccccc2n1 | -0.133
34 | CN(C)c1nc(NCc2ccccc2)nc(SCC(=O)Nc2ccc(Cl)c(Cl)c2)n1 | -0.191
35 | CC(=O)c1cccc(NC(=O)CN2C(=O)COc3ccc(Cl)cc32)c1 | -0.183
36 | COc1ccc(CN2C(=O)c3ccccc3C(/C=N\OCc3ccc(F)cc3)C2=O)cc1 (centres undefined) | 0.722
37 | O=C(Nc1cc(Cl)cc(Cl)c1)C(c1ccccc1)N1CCCCC1 (centres undefined) | 0.151
38 | CN(c1ccc(OCC(=O)Nc2nc3ccccc3s2)cc1)S(=O)(=O)c1ccccc1 | -0.348
39 | COc1ccc(/C=N/NC(=O)c2cc(C)on2)c2ccccc12 | -0.147
40 | COc1ccc(C2CC(c3ccccc3)=NN2C(=O)COC(=O)c2cccc(S(=O)(=O)N3CCOCC3)c2)cc1 (centres undefined) | -0.524
41 | O=C1N/C(=N/Nc2ccccc2)S/C1=C\c1ccccc1 | -0.129
42 | c1cn(CC2(Cn3ccnc3)COC2)cn1 | active: 3.15
43 | Cc1ccc(C(=O)c2cc3ccccc3o2)cc1C | -0.0576
44 | CCCCNC(=O)CSc1nnc(-c2ccc(S(=O)(=O)N3CCCC3)cc2)n1C | -0.00909

Row | SMILES | z-score
45 | Cc1nn(CC(O)COc2ccc3c(c2)CCC3)c(C)c1C (centres undefined) | -0.0908
46 | O=c1c(N2CCOCC2)nsn1Cc1ccccc1 | -0.0642
47 | S=c1[nH]nc(-c2cccnc2)n1C1CCCCC1 | 0.738
48 | CSc1ccccc1NC(=S)Nc1cc(C)cc(C)c1 | -0.0199
49 | CCN1C(=O)c2cccc3c(S(=O)(=O)Nc4ccccc4)ccc1c23 | -0.865
50 | Cc1nc(N2CCN(C)CC2)c2c(C)c(C(=O)Nc3ccc(C)c(F)c3)sc2n1 | -0.555
51 | Cc1ccc(C(=O)Nc2ccccc2C(=O)NC2CCCCC2)cc1S(=O)(=O)N1CCOCC1 | -0.18
52 | COc1cccc(N(C(=O)c2ccco2)C(C(=O)NC2CCCC2)c2ccc(N(C)C)cc2)c1 (centres undefined) | 0.051
53 | O=P(O)(CCc1ccncc1)CN1CCCCC1 | -0.0217
54 | Cc1[nH]c2ccccc2c(=O)c1CN(C)Cc1ccccc1 | 0.088
55 | COc1ccc(N2CCN(C(=O)NC3CCCCC3)CC2)cc1 | -0.261
56 | COc1ccc(OC)c(-n2c(=S)[nH]c3cc(C(=O)NCCCN4CCCC4=O)ccc3c2=O)c1 | 0.764
57 | CCCC(=O)Nc1ccc2c(c1)C(=O)NC2=O | -0.148
58 | O=C1Nc2ccccc2N(O)N1c1cc(-c2ccccc2Cl)no1 | 0.349
59 | COC(=O)c1ccc(N2CCOCC2)c(F)c1 | -0.134
60 | CCC(C)NC(=O)CSc1ccc(NC(C)=O)cc1 (centres undefined) | -0.286
61 | C=C(C)CNC(=S)N1CCNC(=O)C1CC(=O)OC (centres undefined) | 0.179
62 | CCOC(=O)C1=C(C)NC(SC(C)=O)=NC1c1ccc(OC(C)=O)c(OC)c1 (centres undefined) | -1.14
63 | CCn1c2ccc(Cl)cc2c2nc3ccccc3nc21 | -0.419
64 | CCOc1nc(NCCN2CCOCC2)nc(Nc2ccc(C)cc2)n1 | -0.0761
65 | Cc1ccc(-n2c(SCC(N)=O)nnc2-c2ccccn2)cc1 | 2.09
66 | COC(=O)c1cc[n+](CC(=O)c2ccccc2)cc1 | -0.00891

Row | SMILES | z-score
67 | Cc1nn(Cc2ccccc2)c(Cl)c1/C=N/NC(=O)CNc1cccc(C(F)(F)F)c1 | -0.295
68 | CCC1(C)OC(=O)N(CCCn2ccnc2C)C1(C)O (centres undefined) | 0.115
69 | COCCn1c(SCC(=O)Nc2sc(C)c(C)c2C#N)nnc1C(C)C | -0.0552
70 | COc1ccc(Oc2c(Cl)cnn(-c3ccc(F)cc3)c2=O)cc1 | -0.0572
71 | COC(=O)C(CCSC)NC(=O)c1cccc([N+](=O)[O-])c1 (centres undefined) | -0.0969
72 | O=C(Nc1ccc2nccnc2c1)c1cnccn1 | 0.219
73 | C(=N\c1nccs1)/Nc1nccs1 | -0.401
74 | CN(C)/C=C1/N=C(c2ccccc2)OC1=O | -0.23
75 | COc1ccc(C2CC(c3ccccc3)=NN2C(=O)CN2N=NC3C(=O)N(c4cccc(F)c4)C(=O)C32)cc1 (centres undefined) | 0.0157
76 | O=C(c1ccc(F)cc1)N1CCCCC(Sc2nnnn2-c2ccccc2)C1=O (centres undefined) | -0.282
77 | COc1ccc(C(=O)O)cc1S(=O)(=O)Nc1cccc(C)c1 | 0.319
78 | COc1ccc(CO/N=C/c2c(C)[nH]c(=O)[nH]c2=O)cc1 | active: 3.36
79 | Cc1ccc(-c2cn(-c3ccccc3)c(SCC(=O)NC3CCS(=O)(=O)C3)n2)cc1C (centres undefined) | active: 3.44
80 | O=C(CCC1CCCC1)Nc1ccc(Br)cn1 | -0.393
81 | COc1cccc(C(=O)N2CCN(C3CCC(c4ccccc4)CC3)CC2)c1 (centres undefined) | -0.715
82 | COc1cccc(-c2noc(-c3cccs3)n2)c1 | -0.142
83 | Cc1cccc(C2Nc3ccccc3C(=O)N2CCc2ccccc2)n1 (centres undefined) | -1.54
84 | O=C(N/N=C/c1coc2ccccc2c1=O)c1cn(-c2ccccc2)nc1-c1ccccc1 | -0.582
85 | Cc1cccc(NC(=S)Nc2ccc(N3CCOCC3)cc2)c1C | 0.155
86 | COc1ccc(NS(=O)(=O)c2ccc(N3CCCC3)c(NC(=S)Nc3cccc(C)c3C)c2)cc1 | 0.291
87 | Cc1ccc(CNc2ccc(N3CCOCC3)cc2)s1 | -0.358
88 | CCCCC(NC(C)=O)c1nc2ccccc2[nH]1 (centres undefined) | 0.699

Row | SMILES | z-score
89 | Cc1c(O)cc2n(c1=O)-c1ccc(Cl)cc1C2(C)C | -0.373
90 | CC(=O)N1N=C(c2ccco2)CC1c1ccc(C)cc1 (centres undefined) | 0.0902
91 | CCOC(=O)c1c(NC(=O)CSc2nnc(Cc3csc(N)n3)n2C)sc(C)c1C | -1.81
92 | C=CCSc1nc(C)c(CC=C)c(=O)[nH]1 | 0.0891
93 | CCOC(=O)c1cnc(SC)nc1Sc1ccccc1Cl | -0.159
94 | c1csc(-c2csc3nc(CN4CCOCC4)nc(NCc4ccc5c(c4)OCO5)c23)c1 | -0.042
95 | CCn1c(SCc2ccc(F)cc2)nnc1-c1nn(-c2ccccc2)ccc1=O | -0.00976
96 | O=C(c1ccc2c(c1)OCO2)N(Cc1ccco1)C1(C(=O)NC2CCCCC2)CCCCC1 | 0.593
97 | COc1ccc(C2NC(=S)NC3=C2CCc2ccccc23)cc1OC (centres undefined) | -0.416
98 | CC(C)Cc1nnc(NC(=O)CCN2C(=O)c3ccccc3C2=O)s1 | -0.142
99 | COc1ccc2occ(C(=O)c3coc4ccc(O)c(CN(C)C)c34)c2c1 | 0.937
100 | COCCN(C(=O)c1csnn1)C(C(=O)NC1CCCCC1)c1cccs1 (centres undefined) | 0.206
101 | CSc1nsc(/C=C/Nc2ccc(C)cc2)c1C#N | -0.4
102 | N/C(=N\OC(=O)c1cc(-c2ccccc2)nc2ccccc12)c1ccc(Cl)cc1 | -0.32
103 | Cn1c(=O)c(=O)n(C)c2cc(S(=O)(=O)Nc3ccc(OC(F)(F)F)cc3)ccc21 | -0.557
104 | O=C(c1ccc(Cl)cc1)N1CCN(C(=O)c2ccco2)CC1 | 0.0619
105 | CCOC(=O)c1nnn(-c2nc(N3CCCC3)nc(N3CCCC3)n2)c1-c1ccccc1 | 0.109
106 | O=C(Nc1ncccn1)c1cc(-c2cccc(Br)c2)nc2ccccc12 | -0.206
107 | O=C(Nc1ccc(Cl)c(Cl)c1)OCCNC(=O)c1cccc(Cl)c1 | 0.533
108 | COc1ccccc1NC(=O)CCC(=O)N/N=C(/C)c1ccc(C)cc1 | -0.549
109 | COc1ccc(-c2csc(Nc3ccc(S(=O)(=O)Nc4cc(OC)nc(OC)n4)cc3)n2)cc1 | -0.397
